Measurements as given in PubChem BioAssay AID504339 (National Center for Advancing Translational Sciences (NCATS), 2011).
Screen size: about 390,000 compounds; about 17,000 (4.4%) were called active. Inconclusive means that the source gave no clear call. Such entries were picked first, then a sample of the others. Calls follow the shape of the dose curve; as a rule, active = well fitted inhibition curve with a large enough effect; inconclusive = small, poorly fitted or top-dose-only effect; inactive = no such curve, though single readings can be large or run the other way. A potency beside an inconclusive call is a rough fit, not a confirmed value.

What follows are compounds tested against Lysine-specific demethylase 4A (Homo sapiens) (UniProt O75164) (assay: qHTS Assay for Inhibitors of JMJD2A-Tudor Domain). Conditions: AlphaScreen JMJD2A-Tudor / H3K4me3 peptide binding; activity change, negative = inhibition: at 114 µM (top of the series).
% is scaled to controls: 0 for no effect and ±100 for the full control effect; potency is read from the fitted curve at half-maximal effect; tags tell the direction and shape of the fitted curve.
Also: nearly all actives have a fitted effect of over 50% in size.

Chain of UniProt O75164 (O75164 whole entry, looked up, the tested form may be a part): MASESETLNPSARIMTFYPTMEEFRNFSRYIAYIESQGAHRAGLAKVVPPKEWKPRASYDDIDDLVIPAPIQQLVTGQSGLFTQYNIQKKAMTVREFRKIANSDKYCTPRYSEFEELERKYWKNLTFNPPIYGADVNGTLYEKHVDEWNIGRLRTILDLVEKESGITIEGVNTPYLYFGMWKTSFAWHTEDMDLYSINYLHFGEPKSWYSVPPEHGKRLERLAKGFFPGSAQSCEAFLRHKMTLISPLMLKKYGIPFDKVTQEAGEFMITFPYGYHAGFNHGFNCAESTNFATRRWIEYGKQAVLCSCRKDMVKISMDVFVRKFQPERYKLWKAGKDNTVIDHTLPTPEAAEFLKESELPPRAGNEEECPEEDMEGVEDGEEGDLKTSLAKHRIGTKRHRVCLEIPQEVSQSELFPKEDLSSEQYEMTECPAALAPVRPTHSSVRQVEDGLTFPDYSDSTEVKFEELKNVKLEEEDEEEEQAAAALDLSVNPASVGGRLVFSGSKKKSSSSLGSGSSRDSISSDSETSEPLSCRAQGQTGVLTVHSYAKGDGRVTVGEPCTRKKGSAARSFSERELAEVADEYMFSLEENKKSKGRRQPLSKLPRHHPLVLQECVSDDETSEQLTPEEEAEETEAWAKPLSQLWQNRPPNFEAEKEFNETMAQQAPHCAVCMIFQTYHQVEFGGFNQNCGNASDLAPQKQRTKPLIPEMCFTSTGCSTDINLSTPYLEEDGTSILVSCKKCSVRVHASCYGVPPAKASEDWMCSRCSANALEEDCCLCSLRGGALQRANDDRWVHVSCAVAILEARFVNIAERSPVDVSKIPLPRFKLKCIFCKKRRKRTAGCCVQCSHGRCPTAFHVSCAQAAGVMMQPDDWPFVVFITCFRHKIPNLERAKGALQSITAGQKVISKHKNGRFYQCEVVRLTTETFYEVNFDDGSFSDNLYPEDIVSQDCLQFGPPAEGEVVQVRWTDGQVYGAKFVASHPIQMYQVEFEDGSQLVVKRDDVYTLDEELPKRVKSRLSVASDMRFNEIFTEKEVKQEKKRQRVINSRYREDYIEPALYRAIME

SMILES | activity change, negative = inhibition | Potency
CN1C(=O)C(Cc2ccc(OCc3ccccc3)cc2)C(=O)N(C)C1=O | inactive: -12.4% | –
Oc1c(Br)cc(Br)cc1Br | inactive: -24.1% | –
CCOC(=O)c1cccc(NC(=O)c2c(O)[nH]c(=O)[nH]c2=O)c1 | – | inconclusive: 89.1 µM [inhibitor, single point]
NCCc1cc(O)c(O)cc1O | – | active: 10 µM
Fc1ccc(N2CCN(Cc3cc4c(cc3Br)OCO4)CC2)cc1 | – | inconclusive: 56.2 µM [inhibitor, partial curve]
O=C(O)CC(O)(CC(=O)O)C(=O)O | – | active: 79.4 µM
COc1ccc(OCC(=O)N2CCN(Cc3nc4cc([N+](=O)[O-])ccc4n3C)CC2)cc1 | inactive: -29.2% | –
Cc1ccc(N/N=C/C=C/c2ccco2)cc1 | – | active: 50.1 µM
c1cnc(N2CCNCC2)nc1 | – | inconclusive: 89.1 µM [inhibitor, single point]
CCC(C)/C=C(C)/C=C/C1=CC2=C(Cl)C(=O)C(C)(OC(C)=O)C(=O)C2=CO1 (configuration not stated) | – | active: 35.5 µM
COc1ccc(OCC(=O)N2CCN(Cc3cccc(OC)c3OC)CC2)cc1 | – | active: 7.94 µM
CC1CCN(C(=O)c2ncn(C)c2C(=O)N2CCC(C)CC2)CC1 | – | active: 22.4 µM
Oc1ccc2c3c1OC1[C@H](O)CC[C@@]4(O)[C@@H](C2)N(CC2CC2)CC[C@]314 (some centres not stated) | – | inactive
CCOC(=O)c1c(C)n(Cc2ccccc2)c2ccc(OCC(O)Cn3nc(C)cc3C)cc12 (configuration not stated) | – | inconclusive: 56.2 µM [inhibitor, partial curve]
O=C(N/N=C/c1c(O)n(Cc2ccccc2)c(=O)[nH]c1=O)c1ccccc1O | – | inconclusive: 89.1 µM [inhibitor, single point]
Clc1ccc(CSC(Cn2ccnc2)c2ccc(Cl)cc2Cl)cc1 (configuration not stated) | – | inconclusive: 25.1 µM [inhibitor, partial curve]
CC(C)[C@H](CN(N=O)[C@@H](Cc1ccccc1)CN(C)N=O)N(CCc1ccccc1)N=O | – | inconclusive: 63.1 µM [inhibitor, partial curve]
COC(=O)c1ccc(CC(C(=O)c2ccccc2)N(C)C)cc1 (configuration not stated) | inactive: -31.8% | –
Cc1cc(OCC(=O)NCC(O)c2ccccc2)c2c3c(c(=O)oc2c1)CCC3 (configuration not stated) | inactive: -27.8% | –
C[C@@H]1CC2(CCCC[N+]2(C)C)C[C@H]1C | – | inconclusive: 35.5 µM [inhibitor, single point]
Cc1ccccc1Nc1c(-c2ccc(Br)cc2O)nc2sccn12 | – | inconclusive: 22.4 µM [inhibitor, full curve]
Cc1ccc(C2CC3CCC(C2)N3Cc2ccccc2F)cc1 (configuration not stated) | inactive: 2.04% | –
COc1ccc(CCN2CCC(CNC(=O)c3cnn(-c4ccc(C)cc4)c3C3CCN(C(=O)OC(C)(C)C)CC3)CC2)cc1 | – | inconclusive: 56.2 µM [inhibitor, partial curve]
CC(=O)C1C2c3ccccc3O[C@@]1(C)N=c1s/c(=C/c3ccoc3)c(=O)n12 (some centres not stated) | – | inconclusive: 50.1 µM [inhibitor, partial curve]

SMILES | activity change, negative = inhibition | Potency
C=CCn1c(O)c(C(=O)CCCCCC)c(=O)[nH]c1=O | inactive: -14.9% | –
CC(N)[C@H](O)c1ccc(O)c(O)c1 (some centres not stated) | – | active: 14.1 µM
CN1CC(C(=O)c2ccc([N+](=O)[O-])cc2)C(c2ccc(Cl)cc2)C1 (configuration not stated) | – | active: 44.7 µM
CC(C)[N+](C)(C)CC(O)CN(c1ccccc1)c1ccccc1 (configuration not stated) | – | inconclusive: 39.8 µM [inhibitor, single point]
O=C(COc1ccc(Br)cc1)N1CCN(Cc2ccc3c(c2)OCO3)CC1 | – | active: 8.91 µM
COc1cc(/C=C2/C(=O)NC(=O)N(c3ccccc3)C2=O)ccc1O | inactive: -10.7% | –
CCC(C)n1c(O)c(/C=N/NC(=O)c2ccncc2)c(=O)[nH]c1=S (configuration not stated) | – | inconclusive: 89.1 µM [inhibitor, partial curve]
COc1ccc(CN2C(=O)NC(=O)/C(=C\c3ccc(OC)c(OC)c3OC)C2=O)cc1 | – | active: 56.2 µM
Cc1ccc(N=Nc2cc(C)ccc2N)cc1 | – | inconclusive: 3.16 µM [inhibitor, partial curve]
CCC(C(=O)OCCOCCN(CC)CC)c1ccccc1 (configuration not stated) | – | inconclusive: 89.1 µM [inhibitor, single point]
COc1cc2c3cc1Oc1cc(ccc1O)C[C@@H]1c4c(cc(OC)c(O)c4Oc4ccc(cc4)C[C@H]3N(C)CC2)CCN1C | – | inconclusive: 56.2 µM [inhibitor, partial curve]
Clc1cccc(CNCCc2ccc3c(c2)OCO3)c1 | – | active: 28.2 µM
COc1ccc(-c2cc(=Nc3ccccc3)c3cc(C)ccc3o2)cc1 | – | inconclusive: 35.5 µM [inhibitor, partial curve]
COC(=O)C1=C(c2cccc(OCc3ccccc3)c2)C[C@@H]2CC[C@H]1N2C(=O)NCc1ccc2[nH]ccc2c1 | – | inconclusive: 8.91 µM [inhibitor, full curve]
Nc1c(C(=O)Nc2cccc(Br)c2)sc2nc3c(cc12)N1CCC3CC1 | – | inconclusive: 79.4 µM [inhibitor, single point]
COC(=O)C1=C(c2ccc(F)cc2OCc2ccccc2)C[C@@H]2CC[C@H]1N2C(=O)NCc1ccc(OC)c(OC)c1 | – | inconclusive: 25.1 µM [inhibitor, full curve, poor fit]
CC(N)Cc1cn(Cc2ccccc2)c2ccccc12 (configuration not stated) | – | active: 79.4 µM
O=C(O)c1cccc2c1NC(c1cccc([N+](=O)[O-])c1)C1CC(Sc3ccccc3[N+](=O)[O-])C(Cl)C21 (configuration not stated) | – | active: 22.4 µM
Clc1ccc(N2CCN(Cc3ccccc3Cl)CC2)cc1 | – | active: 4.47 µM
O=C(NCC(c1cccnc1)N1CCN(c2ccc(F)cc2)CC1)Oc1ccccc1 (configuration not stated) | – | inconclusive: 56.2 µM [inhibitor, partial curve]
Brc1ccc2[nH]cc(/C=N/N3CCCCC3)c2c1 | – | active: 50.1 µM
CCOC(=O)c1cccc(NC2c3ccccc3C(=O)N2Cc2ccco2)c1 (configuration not stated) | – | inconclusive: 56.2 µM [inhibitor, partial curve, poor fit]
CCOC(=O)c1c(NC(=O)C(c2ccccc2)c2ccccc2)sc2c1C1CCN2CC1 | – | inconclusive: 56.2 µM [inhibitor, partial curve]
Cc1nc2cc([N+](=O)[O-])ccc2c(=O)n1-c1ccccc1[N+](=O)[O-] | inactive: -15.5% | –

SMILES | activity change, negative = inhibition | Potency
FC(F)(F)c1ccc(CN2CCNCC2)cc1 | – | inconclusive: 10 µM [inhibitor, full curve, poor fit]
COc1ccc(C(=O)NC(=S)N2C[C@H]3C[C@H](C2)c2cccc(=O)n2C3)cc1 | inactive: -22.4% | –
CCCCN1C(=O)/C(=C/c2ccc(N(C)C)cc2)C(=O)N(Cc2ccco2)C1=O | – | inconclusive: 15.8 µM [inhibitor, full curve, poor fit]
Cc1cc(/C=C2/C(=O)NC(=O)N(Cc3ccco3)C2=O)c(C)n1-c1ccccc1 | – | active: 50.1 µM
CN(C)[C@@H]1C(=O)C(C(N)=O)=C(O)[C@@]2(O)C(=O)C3=C(O)c4c(O)ccc(Cl)c4[C@@](C)(O)C3C[C@@H]12 (some centres not stated) | – | active: 11.2 µM
Cc1ccc2c(c1)C1C[N+](C)(CC(=O)c3ccc(Cl)cc3Cl)CCC1N2C(=O)c1ccc(F)cc1 (configuration not stated) | – | active: 15.8 µM
C[N+]12CCC(CC1)C(C(O)(c1cccc(Cl)c1)c1cccc(Cl)c1)C2 (configuration not stated) | inactive: -6.34% | –
Cc1cc(Cl)ccc1OCC(=O)O | inactive: -15.2% | –
COc1ccccc1CN1CCCC(C(=O)c2ccccc2SC)C1 (configuration not stated) | inactive: -26.3% | –
Cc1ccc(-c2cc(-c3ccc(C)cc3)[n+](-c3ccc(C(=O)O)cc3)c(-c3ccc(C)cc3)c2)cc1 | – | inconclusive: 89.1 µM [inhibitor, partial curve, poor fit]
Oc1ccc(Cl)cc1CN1CCN(Cc2ccccc2)CC1 | inactive: -24.4% [at 57.1 µM] | –
O=C(Cc1ccccc1)N1CCN(Cc2ccc(Cl)cc2)CC1 | – | active: 10 µM
CN1C(=O)NC(=O)/C(=C/c2ccc([N+](=O)[O-])s2)C1=O | – | inconclusive: 56.2 µM [inhibitor, partial curve]
COc1cc(CN2CCc3nc(N4CCN(c5ccccn5)CC4)ncc3C2)cc(OC)c1OC | – | active: 79.4 µM
CCOC(=O)C1CCN(/C=C2/C(=O)NC(=O)N(Cc3ccco3)C2=O)CC1 | – | inconclusive: 89.1 µM [inhibitor, single point]
COc1ccccc1N1CCN(Cc2cccc(OC)c2O)CC1 | – | inconclusive: 50.1 µM [inhibitor, partial curve]
Cc1ccc(-n2nc(C)c3c2OC(N)=C(C#N)C3c2ccc(F)cc2)cc1 (configuration not stated) | – | inconclusive: 56.2 µM [inhibitor, partial curve]
Oc1cccc2cccnc12 | – | inconclusive: 22.4 µM [inhibitor, full curve, poor fit]
COc1cc(CN2CCN(C(=O)COc3ccccc3)CC2)cc(OC)c1OC | – | active: 3.16 µM
O=c1[nH]c(=S)n(C2CC2)c(O)c1/C=N/Nc1ccccc1 | – | inconclusive: 100 µM [inhibitor, partial curve, poor fit]
CCOc1ccc(CN(CCc2ccc3c(c2)OCO3)Cc2cccc(C)c2)cc1 | – | active: 22.4 µM
CN1C[C@H](C(=O)NC2(C)OC3(O)[C@@H]4CCCN4C(=O)[C@H](Cc4ccccc4)N3C2=O)CC2c3cccc4[nH]cc(c34)C[C@H]21 (some centres not stated) | – | inconclusive: 79.4 µM [inhibitor, partial curve]
CC(c1ccccc1)n1cncc1C(=O)N1CCCC1=O (configuration not stated) | – | inconclusive: 79.4 µM [inhibitor, partial curve]
CCOc1ccc(NC(=O)C2CCCN2C(=O)Oc2ccccc2)cc1 (configuration not stated) | – | inconclusive: 39.8 µM [inhibitor, single point]
